Data published in PubChem BioAssay AID1508642 (National Center for Advancing Translational Sciences (NCATS), 2021).
Among all 43,000 compounds or so, about 200 (0.47%) were called active. Roughly 12% stayed inconclusive and do not appear here. The call rests on the fitted dose curve; in most records, active means well fitted cell-killing curve with a large enough effect; inconclusive means small, poorly fitted or top-dose-only effect, or effect the other way; inactive means flat fitted curve, though single readings scatter. The list shows a part of the results.

Assay: Cell viability qHTS assay in S16 Pmp22-F2sN cells; further: nearly all actives have a fitted effect of over 65% in size
Settings: S16 Pmp22-F2sN Schwann cells (luciferase reporters placed in the Pmp22 gene) viability, CellTiter-Glo, 24 h; series mostly up to 57.5 µM; activity change, negative = cytotoxicity: at the top concentration
Procedure, shortened: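 Luminescence from CellTiter-Glo, read by CCD camera after a 15 min room-temperature incubation, served as the viability signal. Reporter Schwann cells (S16 Pmp22-F2sN) had been treated with pin-transferred compounds for 24 h at 37C.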
On the % scale 0 is the no-effect control and ±100 the full control effect.

SMILES | activity change, negative = cytotoxicity
COc1cc(NC(=O)Cn2nc(Cc3cccnc3)c3ccccc3c2=O)cc(OC)c1OC | inactive: 9.95%
CCCCN(CCCC)S(=O)(=O)c1ccc(C(=O)Nc2sc3c(c2C(N)=O)CCN(CC)C3)cc1 | inactive: -24.1%
Cc1cccc(OCC(=O)Nc2c(C(=O)N3CCN(c4ccccc4)CC3)oc3ccccc23)c1 | inactive: 8.1%
COc1ccc(N2CCN(c3oc(-c4ccccc4C)nc3S(=O)(=O)c3ccccc3)CC2)cc1 | inactive: -2.08%
CC1=C(C(=O)Nc2cccc(Cl)c2)C2(CCCCCC2)OC1=O | inactive: 3.11%
COc1cc(NC(=O)Cn2nc(C(F)(F)F)c3c2CCCC3)cc(OC)c1OC | inactive: 6.62%
COc1ccccc1NC(=O)Cn1c(=O)n(CCc2ccccc2)c(=O)c2sc3ccccc3c21 | inactive: 8.21%
CCOc1ccccc1CNC(=O)CCCn1nc(C)c2sc3ccccc3c2c1=O | inactive: 2.37%
Cc1cccc(CSc2nc3ccncc3n2Cc2ccc(C(=O)O)cc2)c1 | inactive: 1.76%
Cc1ccc(OCc2ccc(-c3nc(C#N)c(N4CCN(c5cccc(Cl)c5)CC4)o3)o2)cc1 | inactive: -2.13%
O=C(Nc1ccc(-c2cn3cccnc3n2)cc1)c1ccccc1F | inactive: 10.8%
Cc1ccccc1Nc1cc(C(=O)NC2CCC(C)CC2)c2ccccc2n1 (centres undefined) | inactive: 8.2%
CCOC(=O)c1ccc(NC(=O)c2c(NCc3cccc(OC)c3)sc3c2CCC3)cc1 | inactive: -26.5%
Cc1cccc(C)c1NC(=O)N1CCC(C(N)=O)(N2CCCCC2)CC1 | inactive: 4.14%
O=C(Nc1ccc(F)cc1F)c1cc2ccc3cccnc3c2[nH]1 | inactive: 11.5%
COc1ccc(-c2nc(Cn3c(SCc4cccc(F)c4)nc4cccnc43)c(C)o2)cc1 | inactive: -18.5%
COc1cccc(C(=O)NCC(c2ccc(N(C)C)cc2)N2CCc3ccccc32)c1OC (centres undefined) | inactive: 5.62%
COc1ccc2oc(-c3ccc(C)c(NC(=O)c4sc5ccccc5c4Cl)c3)nc2c1 | inactive: -4.03%
CC(C)c1ccc(C(=O)Nc2ccc(-c3nc4ccccc4s3)c(Cl)c2)cc1 | inactive: 7.14%
COc1cccc(-n2c(-c3ccco3)nc3c(cnn3-c3ccccc3C)c2=O)c1 | inactive: -19.2%
Cn1cc(C(=O)N2CCN(c3cccc(Cl)c3)CC2)c(=O)c2cc(S(=O)(=O)N3CCCC3)ccc21 | inactive: -20.1%
COc1ccc(C)cc1NC(=O)CN1CCCN(S(=O)(=O)c2ccc(Br)cc2)CC1 | inactive: -29%
CCOc1ccccc1NC(=O)c1c(NC(=O)Cc2ccccc2)sc2c1CCCC2 | inactive: 17.5%
COC(=O)CSCc1nc(-c2ccc(C(=O)OC)cc2)oc1C | inactive: 6.27%
O=C(CCNS(=O)(=O)c1cccc2nonc12)Nc1ccc(F)cc1 | inactive: 24.8%

SMILES | activity change, negative = cytotoxicity
COC(=O)c1cccc(Nc2c(-c3ccc(O)cc3)nc3nc[nH]n23)c1 | inactive: -4.04%
COC(=O)c1cc(OC)c(OC)c(OC)c1NC(=O)c1cc(=O)n(C)c(=O)n1C | inactive: -24.8%
CCOc1ccc(NC(=O)CSc2ccc3ccccc3n2)cc1 | inactive: -2.26%
COCCCNC(=O)CN1C(=O)COc2ccc(S(=O)(=O)N3CCOCC3)cc21 | inactive: -0.548%
CC(C)Oc1ccc(CNC(=O)c2ccc3c(c2)N(Cc2ccc(F)cc2)CCS3)cc1 | inactive: 1.25%
Clc1ccccc1CNc1nc2ccccc2c2nc(-c3ccccc3)nn12 | inactive: 21.7%
O=C(Cn1ncc2c3ccccc3n(Cc3ccc(F)cc3)c2c1=O)NC1CCCCCC1 | inactive: 1.11%
CCOC(=O)c1cc(-c2ccccc2)n(-c2cccc(C(=O)NC(C)CC)c2)c1C (centres undefined) | inactive: -8.62%
COc1ccc(Nc2nc(-c3ccccc3)c3cc(Br)ccc3n2)cc1 | inactive: 14.4%
Cc1ccc(C)c(NC(=O)N2CCN(c3nnc(C)c4c(C)n(-c5ccccc5)nc34)CC2)c1 | inactive: -3.26%
COc1cc2c(cc1OC)C(COc1ccccc1OC)N(C(=O)c1ccc(S(=O)(=O)N3CCCC3)cc1)CC2 (centres undefined) | inactive: 0.717%
Cc1c(C(=O)N(C)c2ccccc2)sc2nc(-c3ccc(F)cc3)cn12 | inactive: -9.97%
CCc1cc2c(cc3c(=O)n(CC(=O)NC4CCC(C)CC4)nc(CC)n32)s1 (centres undefined) | inactive: 13%
O=C(Nc1cccc2cccnc12)c1cccc2c(Br)cccc12 | inactive: 1.49%
O=C1c2oc3ccccc3c(=O)c2C(c2ccccc2F)N1Cc1ccc2c(c1)OCO2 (centres undefined) | inactive: -4.58%
Cc1ccccc1OCC(=O)NCC(c1ccc(Cl)cc1)N1CCOCC1 (centres undefined) | inactive: 3.65%
CN(C(=O)CSc1cn(CC(=O)N2CCCC2)c2ccccc12)c1ccccc1 | inactive: -1.07%
O=C(Nc1ccc(Br)cc1F)c1ccc2nc(CCc3ccccc3)oc2c1 | inactive: -14.3%
CCN(CC)CCNC(=O)c1sc2nc(C)cc(C)c2c1-n1cccc1 | inactive: 13.6%
COc1ccc(-n2c(Cc3ccccc3)nnc2SCc2nc(-c3ccccc3C)no2)cc1 | inactive: -3.93%
Cc1ccc2onc(CNC(=O)N(C)Cc3ccccc3)c2c1 | inactive: 8.37%
COc1ccc(NC(=O)Cn2ccn(Cc3ccccc3)c(=O)c2=O)cc1Cl | inactive: -0.149%
CCc1ccccc1NC(=O)Cn1c(C(=O)OC)cc2oc(C)cc21 | inactive: -0.0664%
CCOC(=O)c1ccc(NC(=O)c2cccc3c(=O)c4c([nH]c23)CCCC4)cc1 | inactive: 7.4%
